Test results from the supplement of paper PMC4967469.
A lower IC50 marks a more sensitive line; where the fit passes the top or lowest dose, that dose stands as a limit. AUC, from the same fit, is the share of area under the viability curve across the 256-fold dose range: 1 means no effect, lower means more sensitive. An inferred top dose was derived from the fitted curves, not read from the paper. An entry number marks a drug with two screens in the source, which often give different values.

Compound: NC(=O)[C@@H](CCC(F)(F)F)N(Cc1ccc(-c2ncon2)cc1F)S(=O)(=O)c1ccc(Cl)cc1 [BMS-708163]
Assay: Viability of human cancer cell lines after 72 h of drug (GDSC screen)
Settings: screen: GDSC drug entry 205; top dose inferred
Method: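 Human cancer cell lines in 384-well plates, medium with 10% serum, drug for 72 h over a 256-fold dose range (nine 2-fold or five 4-fold steps up to the top dose). Adherent lines were fixed and stained with the nucleic acid dye Syto60, suspension lines read with resazurin; signal relative to control wells, capped at 0 and 100%. One two-parameter sigmoid per drug and line, fitted in a mixed model over all curves with the slope shared within a line.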

Cell Line	AUC	IC50
NCI-H187 (small cell lung carcinoma, suspension, top dose 10.24 µM)	0.986	> 10.2 µM
NCI-H196 (small cell lung carcinoma, adherent, top dose 10.24 µM)	0.987	> 10.2 µM
NCI-H209 (small cell lung carcinoma, suspension, top dose 10.24 µM)	0.975	> 10.2 µM
NCI-H211 (small cell lung carcinoma, adherent, top dose 10.24 µM)	0.98	> 10.2 µM
NCI-H226 (lung squamous cell carcinoma, adherent, top dose 10.24 µM)	0.987	> 10.2 µM
NCI-H292 (lung adenocarcinoma, adherent, top dose 10.24 µM)	0.976	> 10.2 µM
NCI-H322M (lung adenocarcinoma, suspension, top dose 10.24 µM)	0.986	> 10.2 µM
NCI-H345 (small cell lung carcinoma, suspension, top dose 10.24 µM)	0.99	> 10.2 µM
NCI-H358 (lung adenocarcinoma, adherent, top dose 10.24 µM)	0.984	> 10.2 µM
NCI-H441 (lung adenocarcinoma, adherent, top dose 10.24 µM)	0.981	> 10.2 µM
NCI-H446 (small cell lung carcinoma, semi-adherent, top dose 10.24 µM)	0.965	> 10.2 µM
NCI-H460 (large cell lung carcinoma, adherent, top dose 10.24 µM)	0.99	> 10.2 µM
NCI-H510A (small cell lung carcinoma, semi-adherent, top dose 10.24 µM)	0.983	> 10.2 µM
NCI-H520 (lung squamous cell carcinoma, adherent, top dose 10.24 µM)	0.962	> 10.2 µM
NCI-H522 (lung adenocarcinoma, adherent, top dose 10.24 µM)	0.984	> 10.2 µM
NCI-H524 (small cell lung carcinoma, suspension, top dose 10.24 µM)	0.987	> 10.2 µM
NCI-H526 (small cell lung carcinoma, suspension, top dose 10.24 µM)	0.989	> 10.2 µM
NCI-H596 (lung adenocarcinoma, adherent, top dose 10.24 µM)	0.971	> 10.2 µM
NCI-H630 (large intestine, adherent, top dose 2.56 µM)	0.981	> 2.56 µM
NCI-H647 (non-small cell lung carcinoma, adherent, top dose 10.24 µM)	0.98	> 10.2 µM
NCI-H650 (lung adenocarcinoma, adherent, top dose 10.24 µM)	0.986	> 10.2 µM

Cell Line	AUC	IC50
NCI-H661 (large cell lung carcinoma, adherent, top dose 10.24 µM)	0.982	> 10.2 µM
NCI-H716 (large intestine, suspension, top dose 2.56 µM)	0.972	> 2.56 µM
NCI-H720 (lung carcinoid, suspension, top dose 10.24 µM)	0.959	> 10.2 µM
NCI-H727 (lung carcinoid, adherent, top dose 10.24 µM)	0.974	> 10.2 µM
NCI-H747 (large intestine, adherent, top dose 2.56 µM)	0.973	> 2.56 µM
NCI-H748 (small cell lung carcinoma, suspension, top dose 10.24 µM)	0.974	> 10.2 µM
NCI-H810 (large cell lung carcinoma, adherent, top dose 10.24 µM)	0.985	> 10.2 µM
NCI-H838 (lung adenocarcinoma, adherent, top dose 10.24 µM)	0.987	> 10.2 µM
NCI-H841 (small cell lung carcinoma, adherent, top dose 10.24 µM)	0.985	> 10.2 µM
NCI-H847 (small cell lung carcinoma, adherent, top dose 10.24 µM)	0.976	> 10.2 µM
NCI-H1048 (small cell lung carcinoma, adherent, top dose 10.24 µM)	0.983	> 10.2 µM
NCI-H1092 (small cell lung carcinoma, suspension, top dose 10.24 µM)	0.99	> 10.2 µM
NCI-H1155 (large cell lung carcinoma, suspension, top dose 10.24 µM)	0.993	> 10.2 µM
NCI-H1299 (large cell lung carcinoma, adherent, top dose 10.24 µM)	0.983	> 10.2 µM
NCI-H1304 (small cell lung carcinoma, suspension, top dose 10.24 µM)	0.982	> 10.2 µM
NCI-H1355 (lung adenocarcinoma, adherent, top dose 10.24 µM)	0.978	> 10.2 µM
NCI-H1395 (lung adenocarcinoma, adherent, top dose 10.24 µM)	0.98	> 10.2 µM
NCI-H1417 (small cell lung carcinoma, suspension, top dose 10.24 µM)	0.975	> 10.2 µM
NCI-H1435 (lung adenocarcinoma, semi-adherent, top dose 10.24 µM)	0.993	> 10.2 µM
NCI-H1436 (small cell lung carcinoma, suspension, top dose 10.24 µM)	0.986	> 10.2 µM
NCI-H1437 (lung adenocarcinoma, adherent, top dose 10.24 µM)	0.986	> 10.2 µM

Cell Line	AUC	IC50
NCI-H1563 (lung adenocarcinoma, adherent, top dose 10.24 µM)	0.982	> 10.2 µM
NCI-H1568 (lung adenocarcinoma, adherent, top dose 10.24 µM)	0.977	> 10.2 µM
NCI-H1573 (lung adenocarcinoma, adherent, top dose 10.24 µM)	0.99	> 10.2 µM
NCI-H1581 (large cell lung carcinoma, semi-adherent, top dose 10.24 µM)	0.99	> 10.2 µM
NCI-H1623 (lung adenocarcinoma, adherent, top dose 10.24 µM)	0.983	> 10.2 µM
NCI-H1648 (lung adenocarcinoma, adherent, top dose 2.56 µM)	0.967	> 2.56 µM
NCI-H1651 (lung adenocarcinoma, adherent, top dose 10.24 µM)	0.982	> 10.2 µM
NCI-H1666 (lung adenocarcinoma, semi-adherent, top dose 2.56 µM)	0.987	> 2.56 µM
NCI-H1688 (small cell lung carcinoma, adherent, top dose 10.24 µM)	0.98	> 10.2 µM
NCI-H1693 (lung adenocarcinoma, adherent, top dose 2.56 µM)	0.943	> 2.56 µM
NCI-H1694 (small cell lung carcinoma, suspension, top dose 10.24 µM)	0.989	> 10.2 µM
NCI-H1703 (lung adenocarcinoma, adherent, top dose 10.24 µM)	0.981	> 10.2 µM
NCI-H1734 (lung adenocarcinoma, adherent, top dose 2.56 µM)	0.979	> 2.56 µM
NCI-H1755 (lung adenocarcinoma, adherent, top dose 10.24 µM)	0.931	> 10.2 µM
NCI-H1770 (non-small cell lung carcinoma, suspension, top dose 10.24 µM)	0.992	> 10.2 µM
NCI-H1781 (lung adenocarcinoma, adherent, top dose 10.24 µM)	0.976	> 10.2 µM
NCI-H1792 (lung adenocarcinoma, adherent, top dose 10.24 µM)	0.99	> 10.2 µM
NCI-H1793 (lung adenocarcinoma, adherent, top dose 10.24 µM)	0.982	> 10.2 µM
NCI-H1836 (small cell lung carcinoma, suspension, top dose 10.24 µM)	0.988	> 10.2 µM
NCI-H1838 (lung adenocarcinoma, adherent, top dose 10.24 µM)	0.987	> 10.2 µM

Same assay, conditions: top dose 5 µM; screen: GDSC drug entry 1072; top dose inferred

Cell Line	AUC	IC50
NCI-H146 (small cell lung carcinoma, suspension)	0.995	> 5 µM
NCI-H508 (large intestine, semi-adherent)	0.926	> 5 µM
NCI-H630 (large intestine, adherent)	0.983	> 5 µM
NCI-H835 (lung carcinoid, suspension)	0.985	> 5 µM
NCI-H929 (myeloma, suspension)	0.978	> 5 µM
NCI-H1105 (small cell lung carcinoma, suspension)	0.991	> 5 µM
NCI-H1341 (small cell lung carcinoma, suspension)	0.973	> 5 µM
NCI-H1650 (lung adenocarcinoma, adherent)	0.981	> 5 µM
